{"source": "PubChem BioAssay AID651711", "about": "(Broad Institute, 2012)", "note": "The whole screen tested about 350,000 compounds, of which about 180 (0.051%) were called active. Inconclusive results, whose numbers are uncertain, are shown with a selection of clear calls.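 Rule for the calls: active = mean replicate inhibition above about 25%, with every replicate also reaching it (limit read from the data, passing the limit was not always enough); inconclusive = only one of those two criteria met; inactive = neither criterion met.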", "data": [{"biological_target": "Protein disulfide-isomerase A6 (Homo sapiens) (UniProt Q15084)", "sequence (Q15084 whole entry, looked up)": "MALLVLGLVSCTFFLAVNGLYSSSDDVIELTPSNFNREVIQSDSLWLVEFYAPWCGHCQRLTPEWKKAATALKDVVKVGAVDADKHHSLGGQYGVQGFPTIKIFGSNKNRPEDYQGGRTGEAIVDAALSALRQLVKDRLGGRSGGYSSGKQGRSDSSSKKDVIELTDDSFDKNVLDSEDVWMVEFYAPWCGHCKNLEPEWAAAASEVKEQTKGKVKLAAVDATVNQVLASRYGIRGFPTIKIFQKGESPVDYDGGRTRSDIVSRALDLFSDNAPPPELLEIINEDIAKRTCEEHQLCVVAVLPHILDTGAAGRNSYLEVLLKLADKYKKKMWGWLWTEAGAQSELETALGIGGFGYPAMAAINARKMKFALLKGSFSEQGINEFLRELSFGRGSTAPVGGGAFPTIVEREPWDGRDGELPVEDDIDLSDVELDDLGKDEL", "assay": "inhibitors of ERp5-driven insulin aggregation, primary screen, biochemical, turbidity, absorbance 650 nm, single point (AID 651711)", "settings": "90 min, at 9.99 µM, stronger effect = higher value", "values": [{"smiles": "O=C(C[C@@H]1C[C@H]2c3cc(NC(=O)C4CCC4)ccc3O[C@H]2[C@@H](CO)O1)NCC(F)(F)F", "inhibition": "active: 77.2%"}, {"smiles": "CSCCC(Nc1ncnc2ccc(Br)cc12)C(=O)O", "note": "(stereo not given)", "inhibition": "inactive: -0.218%"}, {"smiles": "CO[C@@H]1CN(C)C(=O)c2ccc(NC(=O)Cc3ccccc3)cc2OC[C@@H](C)N(CC2CC2)C[C@H]1C", "inhibition": "inactive: -3.27%"}, {"smiles": "CC(=O)c1cc2c(cc1NC(=O)c1cc(C)nn1-c1ccccc1)OCO2", "inhibition": "inconclusive: 45.7%"}, {"smiles": "C[C@@H]1CN([C@@H](C)CO)S(=O)(=O)c2ccc(Br)cc2O[C@H]1CN(C)CC1CCCC1", "inhibition": "inactive: 1.83%"}, {"smiles": "O=C(O)c1ccccc1-c1ccccc1C(=O)Nc1nc2ccccc2s1", "inhibition": "inconclusive: 30.3%"}, {"smiles": "O=c1ccn([C@@H]2O[C@H](CO)[C@@H](O)[C@H]2O)c(=O)[nH]1", "inhibition": "inconclusive: 43.8%"}, {"smiles": "O=S(=O)(Nc1ccccn1)c1cccc(S(=O)(=O)c2ccc(Cl)cc2)c1", "inhibition": "inconclusive: 38.2%"}, {"smiles": "CC(=O)Oc1cccc(-c2nc3ccccc3c(=O)o2)c1", "inhibition": "inconclusive: 39.6%"}, {"smiles": "c1ccc(-c2noc(CN3CCN(c4ccccc4)CC3)n2)cc1", "inhibition": "inactive: -5.67%"}, {"smiles": "CCOc1ccc(C/C(O)=C2\\C(=O)CC(C)(C)CC2=NCC(=O)O)cc1OCC", "inhibition": "inconclusive: 41.9%"}, {"smiles": "CC(C)n1c(O)c(N=Nc2ccc(Cl)c(C(=O)O)c2)c2ccccc21", "inhibition": "inconclusive: 37%"}, {"smiles": "COc1ccc(CCNC(=O)CC(=O)N/N=C/c2ccc(Br)cc2)cc1OC", "inhibition": "inconclusive: 39.3%"}, {"smiles": "COc1ccc(C(=O)NC(=S)Nc2nnn(C)n2)cc1", "inhibition": "inconclusive: 37.1%"}, {"smiles": "C[C@H]1O[C@@H](n2cc(F)c(=O)[nH]c2=O)[C@H](O)[C@@H]1O", "inhibition": "inactive: 2.57%"}, {"smiles": "O=C(C[C@@H]1CC[C@H](NC(=O)c2ccc3c(c2)OCO3)[C@H](CO)O1)NCc1ccc(F)cc1", "inhibition": "inconclusive: 45%"}, {"smiles": "COc1cccc(CC2(CO)CCCN(Cc3cn(C)c4ccccc34)C2)c1", "note": "(stereo not given)", "inhibition": "inconclusive: 46.2%"}, {"smiles": "CC1=NNC(=O)C1CCC(=O)N/N=C\\c1cccc(Cl)c1", "note": "(stereo not given)", "inhibition": "inconclusive: 40.7%"}, {"smiles": "CN(c1ccc(C(=O)Nc2ccc3c(c2)OCCO3)cc1)S(C)(=O)=O", "inhibition": "inactive: -1.45%"}, {"smiles": "CC(C)c1ccc(NC2CCCN(C(=O)CC3CCCC3)C2)cc1", "note": "(stereo not given)", "inhibition": "inactive: 5.54%"}, {"smiles": "NNC(=O)c1sccc1OCc1cccc(C(F)(F)F)c1", "inhibition": "inconclusive: 47.5%"}, {"smiles": "C=CCNC(=S)NN=C1CCCCCCC1", "inhibition": "inconclusive: 49.9%"}, {"smiles": "COc1ccc([C@H]2CC(=O)C=C(c3cc(C=O)ccc3OC)C2)cc1OC", "inhibition": "inconclusive: 35.9%"}, {"smiles": "C/C(CC(=O)Nc1ccccn1)=N\\NC(=O)c1cccc(C)c1", "inhibition": "inconclusive: 41.4%"}, {"smiles": "Brc1ccccc1/C=N/Nc1ccccn1", "inhibition": "inactive: 2.09%"}, {"smiles": "CC(Nc1nc(-c2ccccc2O)nc2ccccc12)c1ccccc1", "note": "(stereo not given)", "inhibition": "inconclusive: 47.2%"}, {"smiles": "O=C(Nc1nc2cc3c(cc2s1)OCO3)c1ccco1", "inhibition": "inconclusive: 44%"}, {"smiles": "CCOCCCNC(=O)c1cc2cc3cc(OC)ccc3nc2o1", "inhibition": "inconclusive: 52.9%"}, {"smiles": "COc1ccc(-c2cc3ccc(OCC(=O)NCC4CCC(C(=O)O)CC4)cc3oc2=O)cc1", "note": "(stereo not given)", "inhibition": "inactive: -2.39%"}, {"smiles": "COc1cccc(-c2ccc([C@H]3[C@@H](CO)N4C(=O)CN(C(=O)c5cccnc5)C[C@H]34)cc2)c1", "inhibition": "inconclusive: 34.8%"}, {"smiles": "Cc1cccc(N2C(=O)CC(n3ccnc3)C2=O)c1C", "note": "(stereo not given)", "inhibition": "inconclusive: 32.2%"}, {"smiles": "CC(C)(C)c1ccc(C(=O)Nc2ccc3c(c2)C(=O)NC3=O)cc1", "inhibition": "inactive: -0.935%"}, {"smiles": "COc1cccc(/C=N/NC(=O)CCc2c(C)n[nH]c2C)c1O", "inhibition": "inconclusive: 46.4%"}, {"smiles": "O=C(C[C@@H]1CC[C@H](NC(=O)c2ccncc2)[C@@H](CO)O1)NCCc1ccncc1", "inhibition": "inactive: 0.988%"}, {"smiles": "COc1ccc(CN2C(=O)c3ccccc3C2c2nnnn2C(C)C)cc1OC", "note": "(stereo not given)", "inhibition": "inactive: 1.24%"}, {"smiles": "Cc1cc(C(=O)Nc2cccc3c2O[C@@H](CN(C)C)[C@@H](C)CN([C@@H](C)CO)C3=O)n(C)n1", "inhibition": "inconclusive: 46.3%"}, {"smiles": "CC(C)(C)Nc1nc(Cl)nc(N(C#N)CN2C(=O)c3ccccc3S2(=O)=O)n1", "inhibition": "inactive: 1.99%"}, {"smiles": "C[C@H]1CCCCO[C@@H](CN(C)S(=O)(=O)c2cn(C)cn2)[C@@H](C)CN([C@@H](C)CO)C(=O)c2cc(NS(=O)(=O)c3cccs3)ccc2O1", "inhibition": "inactive: 6.68%"}, {"smiles": "CCC1Oc2ccccc2N(CC(=O)N2CCCC2)C1=O", "note": "(stereo not given)", "inhibition": "inactive: -6.39%"}, {"smiles": "CCn1cc(C(=O)O)c(=O)c2cc(F)c(N3CCN(C(=S)Nc4ccccc4OC)CC3)cc21", "inhibition": "inconclusive: 40.9%"}, {"smiles": "O=C(COc1ccc2c3c(c(=O)oc2c1)CCC3)N1CCCC1", "inhibition": "inactive: -1.43%"}, {"smiles": "CC(=O)N(C)c1ccc(NC(=O)COc2ccc(Br)cc2C)cc1", "inhibition": "inconclusive: 44.2%"}, {"smiles": "C[C@H](CO)N1C[C@H](C)[C@@H](CN(C)CC2CC2)Oc2ccc(NC(=O)c3ccncc3)cc2CC1=O", "inhibition": "inconclusive: 35.4%"}, {"smiles": "CCN(CC)S(=O)(=O)c1cc(C(=O)OCC(=O)Nc2c(F)cccc2F)ccc1F", "inhibition": "inconclusive: 26.8%"}, {"smiles": "Cc1ccc(NC(=O)c2cccc(S(C)(=O)=O)c2)cc1", "inhibition": "active: 25.5%"}, {"smiles": "Cc1ccc(NC(=S)/N=C(\\N)Nc2nc(C)c3cc(C)c(C)cc3n2)cc1C", "inhibition": "inconclusive: 36.9%"}, {"smiles": "COc1ccc2[nH]c3c(=O)n(CCCC(=O)NC4CCCCC4C)c(=S)[nH]c3c2c1", "note": "(stereo not given)", "inhibition": "inconclusive: 45.8%"}, {"smiles": "C[C@@H]1CN([C@H](C)CO)C(=O)c2ccccc2-c2ccccc2CO[C@@H]1CN(C)S(=O)(=O)c1ccsc1", "inhibition": "inactive: -8.53%"}, {"smiles": "Cc1cc(OCC(=O)Nc2nnc(C3CC3)s2)ccc1[N+](=O)[O-]", "inhibition": "inconclusive: 32%"}, {"smiles": "O=C(N/N=C/c1ccc(N2CCOCC2)cc1)c1cccs1", "inhibition": "inconclusive: 45.6%"}, {"smiles": "COc1cc(S(=O)(=O)NC2CCCCC2)c(C)cc1C", "inhibition": "inconclusive: 35.1%"}, {"smiles": "NS(=O)(=O)c1cccc(NC(=O)CSc2nc3ccc(Cl)cc3[nH]2)c1", "inhibition": "inactive: 3.46%"}, {"smiles": "Cc1cc(NC(=O)CN2CCN(c3ncccn3)CC2)no1", "inhibition": "inconclusive: 48.6%"}, {"smiles": "O=C(O)CSc1cccc2cccnc12", "inhibition": "inactive: 1.99%"}, {"smiles": "COc1cc(OC)c2ccc(=O)oc2c1C(CCN1CCCC(C)C1)c1ccc(N(C)C)cc1", "note": "(stereo not given)", "inhibition": "inconclusive: 38.7%"}, {"smiles": "O=C(Oc1coc(CSc2nnc(NC(=O)c3cccs3)s2)cc1=O)c1ccccc1", "inhibition": "inconclusive: 33.4%"}, {"smiles": "CCCCC1=NN2CCS(=O)(=O)N=C2S1", "inhibition": "inconclusive: 40%"}, {"smiles": "Cc1ccc(N(Cc2ccccc2F)S(C)(=O)=O)c(C)c1", "inhibition": "inconclusive: 37%"}, {"smiles": "Cc1ccc([N+](=O)[O-])cc1N", "inhibition": "inconclusive: 49.5%"}, {"smiles": "CCCCCCCN(C(=O)CCl)c1cccc(C)c1", "inhibition": "inconclusive: 28.7%"}, {"smiles": "C[C@H](CO)N1C[C@H](C)[C@H](CN(C)Cc2ccc(Oc3ccccc3)cc2)OCc2cn(nn2)CCCC1=O", "inhibition": "inactive: -0.338%"}, {"smiles": "N#C/C(=C\\c1cn(Cc2ccccc2)c2ccccc12)C(=O)NCc1ccco1", "inhibition": "inconclusive: 36.8%"}, {"smiles": "CCOc1ccc(CCN2CN(CC)CNC2=S)cc1OCC", "inhibition": "inconclusive: 39.2%"}, {"smiles": "COc1cccc(NC(=O)Nc2nnc(N3CCCCC3C)s2)c1", "note": "(stereo not given)", "inhibition": "inconclusive: 48.6%"}, {"smiles": "CC(NC(=O)CCN1C(=O)c2ccccc2C1=O)c1ccc2c(c1)CCCC2", "note": "(stereo not given)", "inhibition": "inconclusive: 32.2%"}, {"smiles": "COc1ccc2c3c(n(C)c2c1)[C@H](CO)N(CC1CC1)CC31CCN(C(=O)Nc2c(C)noc2C)CC1", "inhibition": "inactive: 0.848%"}, {"smiles": "CCCCNCCCOc1ccc(C)cc1Br", "inhibition": "inactive: -1.05%"}, {"smiles": "COc1ccccc1/C=C/C=N/n1c(-c2cc(C)[nH]n2)n[nH]c1=S", "inhibition": "inactive: -0.187%"}, {"smiles": "O=C(Nc1ccncc1)C1CC(=O)N(c2ccccc2)C1", "note": "(stereo not given)", "inhibition": "active: 28%"}, {"smiles": "C[C@H](CO)N1C[C@H](C)[C@H](CN(C)S(=O)(=O)c2cn(C)cn2)Oc2ncc(C#Cc3ccccc3)cc2C1=O", "inhibition": "active: 36.2%"}, {"smiles": "COc1ccc(CC(=O)OCC(=O)Nc2cccc(Br)c2)cc1", "inhibition": "inconclusive: 46.9%"}, {"smiles": "CC(C)Cn1c(SCC(=O)NCc2ccco2)nnc1-c1ccncc1", "inhibition": "inconclusive: 38.7%"}, {"smiles": "CC(C)C[C@H](NC(=O)c1[nH]cnc1C(=O)N[C@@H](Cc1ccccc1)C(=O)OC(C)(C)C)C(=O)OC(C)(C)C", "inhibition": "inactive: 4.44%"}, {"smiles": "Nc1ncnc(Sc2ccc(Cl)cc2)c1[N+](=O)[O-]", "inhibition": "inactive: 1.12%"}, {"smiles": "FC(F)(F)c1cc(-c2ccccc2)nc(-n2cc(Cl)cn2)n1", "inhibition": "inconclusive: 39.7%"}, {"smiles": "CN(C)C(=O)[C@H]1[C@H](CO)[C@H]2Cn3c(ccc(C4=CCCC4)c3=O)[C@@H]1N2CC1CCCC1", "inhibition": "inactive: 2.85%"}, {"smiles": "CCC(C)(C)NC(=O)CN(Cc1cccs1)C(=O)CNS(=O)(=O)c1ccc(F)cc1", "inhibition": "inconclusive: 41.3%"}, {"smiles": "O=C(NCc1ccc(F)cc1)C1CCC(=O)N1CCc1ccccc1", "note": "(stereo not given)", "inhibition": "inconclusive: 56.6%"}, {"smiles": "CSc1sc2ccccc2[n+]1CCCS(=O)(=O)[O-]", "inhibition": "inconclusive: 43.5%"}, {"smiles": "C[C@H](CO)N1C[C@H](C)[C@H](CN(C)Cc2ccc(-c3ccccc3)cc2)Oc2ccc(NC(=O)CCN3CCOCC3)cc2C1=O", "inhibition": "inactive: -0.005%"}, {"smiles": "CCC(=O)Nc1ccc2c(c1)C(=O)N(C)[C@H]1CC[C@@H](CC(=O)NCC3CC3)O[C@@H]1CO2", "inhibition": "active: 78.1%"}, {"smiles": "COc1cnc(-c2ccccn2)nc1Oc1ccc(F)cc1F", "inhibition": "inactive: 12.3%"}, {"smiles": "COc1cc(OC)cc(C(=O)N2CCN(C(=O)c3ccc(-c4ccccc4)cc3)CC2)c1", "inhibition": "inconclusive: 36.6%"}, {"smiles": "CN(C)c1cccc(NC(=O)c2ccco2)c1", "inhibition": "inactive: -3.08%"}, {"smiles": "COCCNC(=O)C[C@H]1C[C@@H]2c3cc(NC(=O)NC4CCCC4)ccc3O[C@@H]2[C@@H](CO)O1", "inhibition": "inactive: 18.5%"}]}]}
